Measurements taken from PubChem BioAssay (NCATS).
The inconclusive results got no clear call from the source; some entries with a clear call stand among them for comparison. For part of these data: Potencies beside an inconclusive call are fits to weak or partial responses and may not hold up. Active and inactive are the calls of the source. Calls come from the whole dose curve; as a rule, active = well fitted curve in the direction sought with a large enough effect; inconclusive = small, poorly fitted or top-dose-only effect, or another doubt; inactive = no such curve, though single readings can be large; an effect the other way counts as inactive or inconclusive.

How the values were obtained:
HEK293 = assay: Cytotoxic Profiling of Annotated Libraries Using Quantitative High-Throughput Screening (AID 1296008); conditions: Five cell lines viability, CellTiter-Glo ATP luminescence, 48-72 h; max response: active compounds read low; note: nearly all actives have a fitted effect of over 60% in size
Summary of the method: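 Cells exposed to compounds for 48 or 72 hr at 37 degrees Celsius. Viability read as ATP-coupled luminescence with CellTiter-Glo after 10 min at room temperature.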

MKL-1 = assay: qHTS assay to identify novel small-molecules to repurpose for Merkel cell carcinoma treatment (AID 1296009); conditions: MCC and control cell lines, CellTiter-Glo viability, 72 h; series mostly up to 46 µM; note: nearly all actives have a fitted effect of over 60% in size
Summary of the method: (§1)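 Cells were incubated with compound for 72 hr at 37 degree celsius before CellTiter-Glo addition. Luminescence was normalized with no-cell wells as full cytotoxicity and DMSO as baseline.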

MKL-2 = assay: as above; conditions: MCC and control cell lines, CellTiter-Glo viability, 72 h; activity change, negative = cytotoxicity: at 46 µM (top of the series)
Summary of the method: as §1

UISO = assay: as above; conditions: MCC and control cell lines, CellTiter-Glo viability, 72 h; series mostly up to 46 µM
Summary of the method: as §1

HeLa = assay: Primary qHTS to identify gynecologic anti-cancer compounds using libraries of approved drugs and bioactive compounds (AID 1345084); conditions: Gynecologic cancer cell panel viability, ATPlite luminescence, 48 h; series mostly up to 57.5 µM; note: nearly all actives have a fitted effect of over 55% in size
Summary of the method: (§2)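 Five-concentration response, 48 h; readout is ATP-driven luciferase luminescence.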

Hek293T = assay: as above; conditions: Gynecologic cancer cell panel viability, ATPlite luminescence, 48 h, control line for the selectivity index; series mostly up to 57.5 µM
Summary of the method: as §2

JEG-3 = assay: as above; conditions: Gynecologic cancer cell panel viability, ATPlite luminescence, 48 h; series mostly up to 57.5 µM
Summary of the method: as §2

MCC-13 = assay: qHTS assay to identify novel small-molecules to repurpose for Merkel cell carcinoma treatment (AID 1296009); conditions: MCC and control cell lines, CellTiter-Glo viability, 72 h; series mostly up to 46 µM; note: nearly all actives have a fitted effect of over 60% in size
Summary of the method: as §1

MCC-26 = assay: as above; conditions: MCC and control cell lines, CellTiter-Glo viability, 72 h; activity change, negative = cytotoxicity: at 46 µM (top of the series)
Summary of the method: as §1

C33A = assay: Primary qHTS to identify gynecologic anti-cancer compounds using libraries of approved drugs and bioactive compounds (AID 1345084); conditions: Gynecologic cancer cell panel viability, ATPlite luminescence, 48 h; series mostly up to 57.5 µM; note: nearly all actives have a fitted effect of over 55% in size
Summary of the method: as §2

CAOV3 = assay: as above; conditions: Gynecologic cancer cell panel viability, ATPlite luminescence, 48 h; series mostly up to 57.5 µM
Summary of the method: as §2

CASKI = assay: as above; conditions: Gynecologic cancer cell panel viability, ATPlite luminescence, 48 h; series mostly up to 57.5 µM
Summary of the method: as §2

Es-2 = assay: as above; conditions: Gynecologic cancer cell panel viability, ATPlite luminescence, 48 h; series mostly up to 57.5 µM
Summary of the method: as §2

PA-1 = assay: as above; conditions: Gynecologic cancer cell panel viability, ATPlite luminescence, 48 h; series mostly up to 57.5 µM
Summary of the method: as §2

SKOV3 = assay: as above; conditions: Gynecologic cancer cell panel viability, ATPlite luminescence, 48 h; series mostly up to 57.5 µM
Summary of the method: as §2

WaGa = assay: qHTS assay to identify novel small-molecules to repurpose for Merkel cell carcinoma treatment (AID 1296009); conditions: MCC and control cell lines, CellTiter-Glo viability, 72 h; series mostly up to 46 µM; note: nearly all actives have a fitted effect of over 60% in size
Summary of the method: as §1

OV90 = assay: Primary qHTS to identify gynecologic anti-cancer compounds using libraries of approved drugs and bioactive compounds (AID 1345084); conditions: Gynecologic cancer cell panel viability, ATPlite luminescence, 48 h; series mostly up to 57.5 µM; note: nearly all actives have a fitted effect of over 55% in size
Summary of the method: as §2
% is set by controls: 0 for no effect and ±100 for the full control effect; potency is the fitted concentration of half-maximal effect; tags give direction and shape of the fitted curve.

## O=C1CN(/N=C/c2ccc([N+](=O)[O-])o2)C(=O)N1
HEK293
  Potency: inconclusive: 33.5 µM [inhibitor, single point]
MKL-1
  Potency: inconclusive: 23.7 µM [inhibitor, partial curve]
MKL-2
  Potency: inconclusive: 21.1 µM [inhibitor, single point]
UISO
  Potency: inconclusive: 10.6 µM [inhibitor, partial curve]
HeLa
  Potency: inactive
Hek293T
  Potency: inconclusive: 28.2 µM [cytotoxic, single point]
JEG-3
  Potency: inconclusive: 39.8 µM [rising, single point]

## Cc1ccc(C(=O)Nc2ccc(S(=O)(=O)O)c3cc(S(=O)(=O)O)cc(S(=O)(=O)O)c23)cc1NC(=O)c1cccc(NC(=O)Nc2cccc(C(=O)Nc3cc(C(=O)Nc4ccc(S(=O)(=O)O)c5cc(S(=O)(=O)O)cc(S(=O)(=O)O)c45)ccc3C)c2)c1
HEK293
  Potency: inconclusive: 37.2 µM [inhibitor, single point]
MKL-2
  Potency: inactive

## CNCC(O)c1ccc(O)c(O)c1 (centres undefined)
HEK293
  Potency: inconclusive: 33.5 µM [inhibitor, partial curve, poor fit]
MCC-13
  Potency: inconclusive: 29.9 µM [inhibitor, single point]
MCC-26
  Potency: inconclusive: 26.6 µM [inhibitor, single point]
MKL-1
  Potency: active: 16.8 µM
MKL-2
  Potency: active: 13.3 µM
C33A
  Potency: inconclusive: 39.8 µM [cytotoxic, single point]
CAOV3
  Potency: inconclusive: 35.5 µM [cytotoxic, single point]
CASKI
  Potency: inconclusive: 39.8 µM [cytotoxic, single point]
Es-2
  Potency: inconclusive: 39.8 µM [cytotoxic, single point]
PA-1
  Potency: inconclusive: 39.8 µM [cytotoxic, single point]
SKOV3
  Potency: active: 28.2 µM

## CN(C)[C@@H]1C(=O)C(C(N)=O)=C(O)[C@@]2(O)C(=O)C3=C(O)c4c(O)cccc4C[C@H]3C[C@@H]12
HEK293
  Potency: inconclusive: 23.7 µM [inhibitor, single point]
MKL-1
  Potency: inconclusive: 29.9 µM [inhibitor, single point]
WaGa
  Potency: inconclusive: 29.9 µM [inhibitor, single point]
CASKI
  Potency: inactive
PA-1
  Potency: inactive
SKOV3
  Potency: inactive

## CN1CCN(C2Cc3ccccc3Sc3ccc(Cl)cc32)CC1 (centres undefined)
HEK293
  Potency: inconclusive: 23.7 µM [inhibitor, single point]
MKL-2
  Potency: active: 26.6 µM
UISO
  Potency: active: 23.7 µM
WaGa
  Potency: active: 23.7 µM
CAOV3
  Potency: inconclusive: 39.8 µM [cytotoxic, single point]
OV90
  Potency: inconclusive: 25.1 µM [cytotoxic, single point]
SKOV3
  Potency: inconclusive: 39.8 µM [cytotoxic, single point]

## CCCC(=O)O[C@]1(C(=O)CCl)[C@@H](C)C[C@H]2[C@@H]3CCC4=CC(=O)C=C[C@]4(C)[C@@]3(F)C(=O)C[C@@]21C
HEK293
  Potency: inconclusive: 29.9 µM [inhibitor, single point]
MKL-2
  Potency: inconclusive: 9.44 µM [inhibitor, partial curve]
UISO
  Potency: inconclusive: 18.8 µM [inhibitor, single point]
WaGa
  Potency: inconclusive: 7.5 µM [inhibitor, full curve]
C33A
  Potency: inactive
CAOV3
  Potency: inconclusive: 1.12 µM [cytotoxic, partial curve, poor fit]
Hek293T
  Potency: inconclusive: 39.8 µM [cytotoxic, single point]

## O=c1c(-c2ccc(O)cc2)coc2cc(O[C@@H]3O[C@H](CO)[C@H](O)[C@H](O)[C@H]3O)ccc12
HEK293
  Potency: inconclusive: 18.7 µM [inhibitor, partial curve, poor fit]
MKL-2
  Potency: inactive

## Nc1cc(C(F)(F)F)ccc1S
HEK293
  max response: inactive: -4.91%
MCC-13
  Potency: inconclusive: 23.7 µM [inhibitor, single point]
MCC-26
  Potency: inconclusive: 29.9 µM [inhibitor, single point]
MKL-1
  Potency: inconclusive: 16.8 µM [inhibitor, single point]
MKL-2
  Potency: active: 11.9 µM
WaGa
  Potency: inconclusive: 21.1 µM [inhibitor, single point]
SKOV3
  Potency: inactive

## CCCC(=O)OC[C@@H](OC(=O)CCC)[C@@H](OC(=O)CCC)[C@H](Cn1c2nc(=O)[nH]c(=O)c-2nc2cc(C)c(C)cc21)OC(=O)CCC
HEK293
  Potency: inconclusive: 33.5 µM [inhibitor, single point]
UISO
  Potency: inconclusive: 29.9 µM [inhibitor, single point]
WaGa
  Potency: active: 4.22 µM
JEG-3
  Potency: inconclusive: 39.8 µM [cytotoxic, partial curve, poor fit]
OV90
  Potency: inconclusive: 39.8 µM [cytotoxic, single point]
